{"source": "the antibiotic and cytotoxicity screens of Wong et al. (2023)", "note": "The list shows a part of the results."}
{"test_system": "HepG2", "experiment": "cytotoxicity call (relative viability < 0.9)", "conditions": "10 µM"}
{"smiles": "COc1cc(Nc2ncc(F)c(Nc3ccc4c(n3)N(COP(=O)(O)O)C(=O)C(C)(C)O4)n2)cc(OC)c1OC", "cytotoxicity call": "active"}
{"smiles": "C[C@@H]1CN([C@H](C)CO)C(=O)Cc2cc(NS(=O)(=O)c3cn(C)cn3)ccc2O[C@H]1CN(C)C(=O)Nc1ccc(F)cc1", "cytotoxicity call": "inactive"}
{"smiles": "CC(C)N1CC[C@@H](CN(C)Cc2ccc(Cl)cc2)Oc2c(NC(=O)c3ccncc3)cccc2C1=O", "cytotoxicity call": "inactive"}
{"smiles": "COc1cccc(S(=O)(=O)N(C)C[C@@H]2Oc3ncc(C#CCC(C)C)cc3C(=O)N([C@H](C)CO)C[C@@H]2C)c1", "cytotoxicity call": "inactive"}
{"smiles": "C[C@H]1CN([C@@H](C)CO)C(=O)c2cc(Br)cnc2O[C@@H]1CN(C)Cc1cccc(C(=O)O)c1", "cytotoxicity call": "inactive"}
{"smiles": "C[C@@H]1CN([C@H](C)CO)C(=O)c2cc(NC(=O)Cn3cnnn3)ccc2O[C@@H]1CN(C)Cc1ccccc1", "cytotoxicity call": "inactive"}
{"smiles": "Cc1noc(C)c1NC(N)=O", "cytotoxicity call": "inactive"}
{"smiles": "CC(C)NC(=O)Nc1cccc2c1O[C@@H](CN(C)Cc1ccc(C(=O)O)cc1)[C@H](C)CN([C@H](C)CO)C2=O", "cytotoxicity call": "inactive"}
{"smiles": "O=C(C[C@H]1CC[C@H]2[C@@H](COC[C@@H](O)CN2S(=O)(=O)c2ccccc2Cl)O1)NCCc1ccncc1", "cytotoxicity call": "inactive"}
{"smiles": "Cc1noc(C)c1NC(=O)Nc1ccc2c(c1)C(=O)N([C@@H](C)CO)C[C@@H](C)[C@@H](CN(C)S(=O)(=O)c1ccccc1)OCCCC[C@H](C)O2", "cytotoxicity call": "inactive"}
{"smiles": "C[C@@H]1CCCCO[C@H](CN(C)S(=O)(=O)c2cn(C)cn2)[C@@H](C)CN([C@H](C)CO)C(=O)c2cc(NS(=O)(=O)c3ccccc3)ccc2O1", "cytotoxicity call": "inactive"}
{"smiles": "C=CCC[C@H](Cc1ccc(F)cc1)C(=O)OC[C@H]1CCCN1C(=O)[C@H](CC=C)CC(=O)N(CCO)Cc1ccccc1", "cytotoxicity call": "inactive"}
{"smiles": "C[C@@H]1CCCCO[C@@H](CN(C)CC2CCCCC2)[C@@H](C)CN([C@H](C)CO)C(=O)c2cc(N(C)C)ccc2O1", "cytotoxicity call": "inactive"}
{"smiles": "C[C@H]1CN([C@@H](C)CO)C(=O)c2cc(NC(=O)CCN3CCOCC3)ccc2O[C@H]1CN(C)Cc1ccncc1", "cytotoxicity call": "inactive"}
{"smiles": "C[C@@H]1CCCCO[C@H](CN(C)CC2CC2)[C@@H](C)CN([C@H](C)CO)C(=O)c2cc(NS(=O)(=O)c3cn(C)cn3)ccc2O1", "cytotoxicity call": "inactive"}
{"smiles": "C[C@@H]1CCCCO[C@H](CN(C)S(=O)(=O)c2ccc(Cl)cc2)[C@H](C)CN([C@@H](C)CO)C(=O)c2cc(NS(=O)(=O)c3ccc(Cl)cc3)ccc2O1", "cytotoxicity call": "active"}
{"smiles": "C[C@@H]1CN([C@H](C)CO)C(=O)c2cc(-c3ccc(C(=O)N(C)C)cc3)cnc2O[C@H]1CN(C)C(=O)CN(C)C", "cytotoxicity call": "inactive"}
{"smiles": "CCC(=O)N(C)C[C@@H]1Oc2ncc(C#C[C@H](C)O)cc2C(=O)N([C@@H](C)CO)C[C@H]1C", "cytotoxicity call": "inactive"}
{"smiles": "C[C@@H]1CCCCO[C@H](CN(C)C(=O)Nc2cccc3ccccc23)[C@H](C)CN([C@@H](C)CO)C(=O)c2cc(NC(=O)CCC(F)(F)F)ccc2O1", "cytotoxicity call": "inactive"}
{"smiles": "C[C@@H]1CCCCO[C@H](CN(C)C(=O)Nc2ccc(C(F)(F)F)cc2)[C@@H](C)CN([C@H](C)CO)C(=O)c2cc(NS(C)(=O)=O)ccc2O1", "cytotoxicity call": "inactive"}
{"smiles": "COc1ccc(NC(=O)N(C)C[C@@H]2Oc3c(NC(=O)Nc4ccc(C(F)(F)F)cc4)cccc3C(=O)N([C@@H](C)CO)C[C@@H]2C)cc1", "cytotoxicity call": "inactive"}
{"smiles": "COc1ccc(S(=O)(=O)N(C)C[C@@H]2Oc3c(NC(=O)c4cnccn4)cccc3C(=O)N([C@@H](C)CO)C[C@H]2C)cc1", "cytotoxicity call": "inactive"}
{"smiles": "CO[C@H]1CN(C)C(=O)c2ccc(NS(=O)(=O)CC(F)(F)F)cc2OC[C@H](C)N(C(=O)NC(C)C)C[C@H]1C", "cytotoxicity call": "inactive"}
{"smiles": "CC(C)NC(=O)Nc1cccc2c1O[C@H](CN(C)C(=O)NC1CCCCC1)[C@H](C)CN([C@@H](C)CO)C2=O", "cytotoxicity call": "inactive"}
{"smiles": "C[C@H](CO)N1C[C@H](C)[C@@H](CN(C)Cc2ccc(-c3ccccc3)cc2)Oc2c(NC(=O)Nc3ccc(C(F)(F)F)cc3)cccc2C1=O", "cytotoxicity call": "inactive"}
{"smiles": "Cc1noc(C)c1NC(=O)N(C)C[C@@H]1OCCCC[C@H](C)Oc2ccc(NC(=O)Nc3ccc(F)cc3)cc2C(=O)N([C@H](C)CO)C[C@@H]1C", "cytotoxicity call": "inactive"}
{"smiles": "C[C@H](CO)N1C[C@H](C)[C@H](CN(C)Cc2ccc(Oc3ccccc3)cc2)Oc2c(NC(=O)c3nc4ccccc4s3)cccc2C1=O", "cytotoxicity call": "inactive"}
{"smiles": "COc1ccc(NC(=O)Nc2cccc3c2O[C@@H](CN(C)CC2CCCCC2)[C@@H](C)CN([C@H](C)CO)C3=O)cc1", "cytotoxicity call": "inactive"}
{"smiles": "CC(C(=O)O)c1ccc(N2Cc3ccccc3C2=O)cc1", "note": "(centres undefined)", "cytotoxicity call": "inactive"}
{"smiles": "CC(C)Cc1ccc(/C=C/C=O)cc1", "cytotoxicity call": "inactive"}
{"smiles": "COC(=O)C1=CO[C@@H](O[C@@H]2O[C@H](CO)[C@@H](O)[C@H](O)[C@H]2O)[C@@H]2[C@@H](C)[C@@H](O)C[C@H]12", "cytotoxicity call": "inactive"}
{"smiles": "CC(C)(C)[S@@](=O)N1Cc2cc(C(=O)NCc3ccc4c(c3)OCO4)nc(-c3cccc(-c4cccnc4)c3)c2[C@H]1CCO", "cytotoxicity call": "inactive"}
{"smiles": "Cc1noc(C)c1NC(=O)Nc1cccc2c1O[C@H](CN(C)S(=O)(=O)c1ccccc1)[C@@H](C)CN([C@@H](C)CO)C2=O", "cytotoxicity call": "inactive"}
{"smiles": "C[C@H](CO)N1C[C@H](C)[C@H](CN(C)C(=O)Nc2ccc3c(c2)OCO3)Oc2ncc(-c3cncnc3)cc2C1=O", "cytotoxicity call": "inactive"}
{"smiles": "Cc1ccc(S(=O)(=O)Nc2ccc3c(c2)C(=O)N([C@H](C)CO)C[C@H](C)[C@@H](CN(C)S(=O)(=O)c2ccc(Cl)cc2)OCCCC[C@H](C)O3)cc1", "cytotoxicity call": "active"}
{"smiles": "C[C@@H]1CN([C@H](C)CO)C(=O)c2cc(NC(=O)C3CC3)ccc2O[C@H]1CN(C)Cc1ccc(C(=O)O)cc1", "cytotoxicity call": "inactive"}
{"smiles": "C[C@@H]1CCCCO[C@H](CN(C)C(=O)NC2CCCCC2)[C@@H](C)CN([C@@H](C)CO)C(=O)c2cc(NC(=O)CCC(F)(F)F)ccc2O1", "cytotoxicity call": "inactive"}
{"smiles": "C[C@H]1CN([C@@H](C)CO)C(=O)c2cc(NS(=O)(=O)c3cccs3)ccc2O[C@@H]1CN(C)S(=O)(=O)c1cccs1", "cytotoxicity call": "inactive"}
{"smiles": "COc1ccc2c3c([nH]c2c1)[C@H](CO)N(C[C@]13CN(C1)S(=O)(=O)c1cn(cn1)C)C(=O)Nc1ccc(cc1)F", "cytotoxicity call": "inactive"}
